# Results from the supplement of paper PMC8728848.
# The list shows a part of the results.
# B1: EPL1 (Trichoderma atroviride), A0PCX2 (protein)
# chain: MQLSNLFKLALFTAAVSADTVSYDTGYDDASRSLTVVSCSDGTNGLITRYHWQTQGQIPRFPYIGGAQAVAGWNSPNCGTCWKLTYSGKTIYVLAIDHTAAGFNIGLDAMNALTNGNAVALGRVSATASQVAVSNCGL
# How the values were obtained:
# Test in all cases: glycan array binding signal (z-score within array); higher = stronger binding
# Settings in all cases: glycan notation: IUPAC condensed, linker removed
# [1] = target: Neu5Ac(a2-6)Gal(b1-4)GlcNAc(b1-2)Man(a1-3)[GlcNAc(b1-4)][Neu5Ac(a2-6)Gal(b1-4)GlcNAc(b1-2)Man(a1-6)]Man(b1-4)GlcNAc(b1-4)GlcNAc
# Method in brief: (§1)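 The binding signal is a Z-score computed within each array. Data were drawn from 3228 arrays in the Consortium for Functional Glycomics database, restricted to those with a known protein sequence. Scores were averaged over arrays of the same protein sequence at different concentrations or buffers, and over linkers, and negative values can be taken as non-binding.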
# [2] = target: Neu5Ac(a2-6)Gal(b1-4)GlcNAc(b1-2)Man(a1-3)[Man(a1-6)]Man(b1-4)GlcNAc(b1-4)GlcNAc
# Method in brief: as §1
# [3] = target: Neu5Ac(a2-6)Gal(b1-4)GlcNAc(b1-2)Man(a1-3)[Neu5Ac(a2-3)Gal(b1-4)GlcNAc(b1-2)Man(a1-6)]Man(b1-4)GlcNAc(b1-4)GlcNAc
# Method in brief: as §1
# [4] = target: Neu5Ac(a2-6)Gal(b1-4)GlcNAc(b1-2)Man(a1-3)[Neu5Ac(a2-6)Gal(b1-4)GlcNAc(b1-2)Man(a1-6)]Man(b1-4)GlcNAc(b1-4)GlcNAc
# Method in brief: as §1
# [5] = target: Neu5Ac(a2-6)Gal(b1-4)GlcNAc(b1-2)Man(a1-3)[Neu5Ac(a2-6)Gal(b1-4)GlcNAc(b1-2)Man(a1-6)]Man(b1-4)GlcNAc(b1-4)[Fuc(a1-6)]GlcNAc
# Method in brief: as §1
# [6] = target: Neu5Ac(a2-6)Gal(b1-4)GlcNAc(b1-2)Man(a1-6)Man(b1-4)GlcNAc(b1-4)GlcNAc
# Method in brief: as §1
# [7] = target: Neu5Ac(a2-6)Gal(b1-4)GlcNAc(b1-2)Man(a1-6)[Gal(b1-4)GlcNAc(b1-2)Man(a1-3)]Man(b1-4)GlcNAc(b1-4)GlcNAc
# Method in brief: as §1
# [8] = target: Neu5Ac(a2-6)Gal(b1-4)GlcNAc(b1-2)Man(a1-6)[GlcNAc(b1-2)Man(a1-3)]Man(b1-4)GlcNAc(b1-4)GlcNAc
# Method in brief: as §1
# [9] = target: Neu5Ac(a2-6)Gal(b1-4)GlcNAc(b1-2)Man(a1-6)[Man(a1-3)]Man(b1-4)GlcNAc(b1-4)GlcNAc
# Method in brief: as §1
# [10] = target: Neu5Ac(a2-6)Gal(b1-4)GlcNAc(b1-2)[Neu5Ac(a2-6)Gal(b1-4)GlcNAc(b1-4)]Man(a1-3)[GlcNAc(b1-4)][Neu5Ac(a2-6)Gal(b1-4)GlcNAc(b1-2)[Neu5Ac(a2-6)Gal(b1-4)GlcNAc(b1-6)]Man(a1-6)]Man(b1-4)GlcNAc(b1-4)GlcNAc
# Method in brief: as §1
# [11] = target: Neu5Ac(a2-6)Gal(b1-4)GlcNAc(b1-2)[Neu5Ac(a2-6)Gal(b1-4)GlcNAc(b1-4)]Man(a1-3)[GlcNAc(b1-4)][Neu5Ac(a2-6)Gal(b1-4)GlcNAc(b1-4)Man(a1-6)]Man(b1-4)GlcNAc(b1-4)GlcNAc
# Method in brief: as §1
# [12] = target: Neu5Ac(a2-6)Gal(b1-4)GlcNAc(b1-2)[Neu5Ac(a2-6)Gal(b1-4)GlcNAc(b1-6)]Man(a1-6)[Neu5Ac(a2-6)Gal(b1-4)GlcNAc(b1-2)Man(a1-3)][GlcNAc(b1-4)]Man(b1-4)GlcNAc(b1-4)GlcNAc
# Method in brief: as §1
# [13] = target: Neu5Ac(a2-6)Gal(b1-4)GlcNAc(b1-3)Gal(b1-3)GlcNAc
# Method in brief: as §1
# [14] = target: Neu5Ac(a2-6)Gal(b1-4)GlcNAc(b1-3)Gal(b1-4)GlcNAc
# Method in brief: as §1
# [15] = target: Neu5Ac(a2-6)Gal(b1-4)GlcNAc(b1-3)Gal(b1-4)GlcNAc(b1-2)Man(a1-3)[Neu5Ac(a2-6)Gal(b1-4)GlcNAc(b1-3)Gal(b1-4)GlcNAc(b1-2)Man(a1-6)]GalNAc
# Method in brief: as §1
# [16] = target: Neu5Ac(a2-6)Gal(b1-4)GlcNAc(b1-3)Gal(b1-4)GlcNAc(b1-3)Gal(b1-4)GlcNAc
# Method in brief: as §1
# [17] = target: Neu5Ac(a2-6)Gal(b1-4)GlcNAc(b1-3)Gal(b1-4)GlcNAc(b1-3)Gal(b1-4)GlcNAc(b1-2)Man(a1-3)[Neu5Ac(a2-6)Gal(b1-4)GlcNAc(b1-3)Gal(b1-4)GlcNAc(b1-3)Gal(b1-4)GlcNAc(b1-2)Man(a1-6)]GalNAc
# Method in brief: as §1
# [18] = target: Neu5Ac(a2-6)Gal(b1-4)GlcNAc(b1-3)Gal(b1-4)GlcNAc(b1-3)GalNAc
# Method in brief: as §1
# [19] = target: Neu5Ac(a2-6)Gal(b1-4)GlcNAc(b1-3)Gal(b1-4)GlcNAc(b1-3)[Neu5Ac(a2-6)Gal(b1-4)GlcNAc(b1-3)Gal(b1-4)GlcNAc(b1-6)]GalNAc
# Method in brief: as §1
# [20] = target: Neu5Ac(a2-6)Gal(b1-4)GlcNAc(b1-3)Gal(b1-4)GlcNAc(b1-6)[Gal(b1-3)]GalNAc
# Method in brief: as §1
# [21] = target: Neu5Ac(a2-6)Gal(b1-4)GlcNAc(b1-3)Gal(b1-4)[Fuc(a1-3)]GlcNAc(b1-3)Gal(b1-4)[Fuc(a1-3)]GlcNAc
# Method in brief: as §1
# [22] = target: Neu5Ac(a2-6)Gal(b1-4)GlcNAc(b1-3)GalNAc
# Method in brief: as §1
# [23] = target: Neu5Ac(a2-6)Gal(b1-4)GlcNAc(b1-3)[Neu5Ac(a2-6)Gal(b1-4)GlcNAc(b1-6)]GalNAc
# Method in brief: as §1
# [24] = target: Neu5Ac(a2-6)Gal(b1-4)GlcNAc(b1-6)GalNAc
# Method in brief: as §1
# [25] = target: Neu5Ac(a2-6)Gal(b1-4)GlcNAc(b1-6)[Gal(b1-3)GlcNAc(b1-3)]Gal(b1-4)Glc
# Method in brief: as §1
# [26] = target: Neu5Ac(a2-6)Gal(b1-4)GlcNAc(b1-6)[Gal(b1-3)]GalNAc
# Method in brief: as §1
# [27] = target: Neu5Ac(a2-6)Gal(b1-4)GlcNAc6S
# Method in brief: as §1
# [28] = target: Neu5Ac(a2-6)GalNAc
# Method in brief: as §1
# [29] = target: Neu5Ac(a2-6)GalNAc(b1-4)GlcNAc
# Method in brief: as §1
# [30] = target: Neu5Ac(a2-6)GalNAc(b1-4)GlcNAc6S
# Method in brief: as §1
# [31] = target: Neu5Ac(a2-6)GlcNAc(b1-4)GlcNAc
# Method in brief: as §1
binder,measurement,setting,value
B1,glycan array binding signal (z-score),[1],-0.464
same,glycan array binding signal (z-score),[2],-0.027
same,glycan array binding signal (z-score),[3],0.051
same,glycan array binding signal (z-score),[4],-0.013
same,glycan array binding signal (z-score),[5],0.022
same,glycan array binding signal (z-score),[6],-0.237
same,glycan array binding signal (z-score),[7],-0.305
same,glycan array binding signal (z-score),[8],-0.056
same,glycan array binding signal (z-score),[9],-0.436
same,glycan array binding signal (z-score),[10],-0.583
same,glycan array binding signal (z-score),[11],-0.299
same,glycan array binding signal (z-score),[12],-0.079
same,glycan array binding signal (z-score),[13],-0.53
same,glycan array binding signal (z-score),[14],-0.247
same,glycan array binding signal (z-score),[15],-0.089
same,glycan array binding signal (z-score),[16],-0.13
same,glycan array binding signal (z-score),[17],0.008
same,glycan array binding signal (z-score),[18],0.182
same,glycan array binding signal (z-score),[19],0.102
same,glycan array binding signal (z-score),[20],0.052
same,glycan array binding signal (z-score),[21],-0.291
same,glycan array binding signal (z-score),[22],-0.416
same,glycan array binding signal (z-score),[23],-0.474
same,glycan array binding signal (z-score),[24],-0.487
same,glycan array binding signal (z-score),[25],-0.453
same,glycan array binding signal (z-score),[26],-0.255
same,glycan array binding signal (z-score),[27],0.855
same,glycan array binding signal (z-score),[28],-0.036
same,glycan array binding signal (z-score),[29],-0.393
same,glycan array binding signal (z-score),[30],-0.356
same,glycan array binding signal (z-score),[31],-0.132
